In the supplement of paper PMC3334620:
Whole data set: some 33,000 sequences, median “E-score (-0.5 to 0.5)” near -0.035, cut for the highest 2% near 0.35. The list shows a part of the results.

molecular target: T1, Pdr3 (UniProt P33200); assay: PBM E-score (8-mer binding enrichment) (E-score (-0.5 to 0.5)); higher = stronger / more preferred TF binding; most listed sequences are background and not binding sites; conditions: protein concentration: 200 nM; construct: GST-full length
T1 sequence: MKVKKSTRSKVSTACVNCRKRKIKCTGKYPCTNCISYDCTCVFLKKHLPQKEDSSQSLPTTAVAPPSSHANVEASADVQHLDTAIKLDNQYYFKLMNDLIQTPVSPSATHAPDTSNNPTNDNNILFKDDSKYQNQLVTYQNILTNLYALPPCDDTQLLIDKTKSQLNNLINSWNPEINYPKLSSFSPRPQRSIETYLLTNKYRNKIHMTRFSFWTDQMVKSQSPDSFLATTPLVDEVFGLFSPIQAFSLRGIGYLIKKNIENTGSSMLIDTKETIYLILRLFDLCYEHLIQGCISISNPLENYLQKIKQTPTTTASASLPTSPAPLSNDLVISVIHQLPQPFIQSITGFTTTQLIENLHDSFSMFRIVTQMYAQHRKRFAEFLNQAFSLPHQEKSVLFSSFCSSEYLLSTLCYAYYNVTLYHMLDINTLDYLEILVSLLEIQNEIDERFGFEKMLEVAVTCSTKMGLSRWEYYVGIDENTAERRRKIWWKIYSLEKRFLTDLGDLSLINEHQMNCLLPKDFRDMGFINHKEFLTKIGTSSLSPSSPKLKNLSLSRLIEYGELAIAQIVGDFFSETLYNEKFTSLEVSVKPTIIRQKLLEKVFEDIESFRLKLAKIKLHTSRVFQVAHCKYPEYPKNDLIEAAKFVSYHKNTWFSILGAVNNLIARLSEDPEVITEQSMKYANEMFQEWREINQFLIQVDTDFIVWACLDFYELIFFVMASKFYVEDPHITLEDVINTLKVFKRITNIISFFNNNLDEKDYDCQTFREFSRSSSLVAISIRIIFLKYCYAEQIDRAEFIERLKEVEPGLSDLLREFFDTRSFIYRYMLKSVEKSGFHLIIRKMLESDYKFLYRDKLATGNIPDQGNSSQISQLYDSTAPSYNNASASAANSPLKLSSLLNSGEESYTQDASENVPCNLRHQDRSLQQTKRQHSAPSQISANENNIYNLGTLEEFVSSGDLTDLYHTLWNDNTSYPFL
Summary of the method: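 Bound GST-tagged yeast transcription factors, applied at about 100-200 nM to double-stranded universal all-10-mer Agilent arrays, were detected with fluorescent anti-GST. Scans were normalised with masliner. A modified Wilcoxon-Mann-Whitney statistic, the E-score, was assigned to each ungapped eight-base word pooled with its reverse complement by the Universal PBM Analysis Suite.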

Row | Sequence | PBM E-score
1 | CCTGCCGC | 0.0865
2 | TCGGTAAA | 0.0204
3 | ACCAGCTC | -0.133
4 | CGTCAACG | -0.0391
5 | TCTGAAAA | -0.0152
6 | CATATAAA | -0.142
7 | GAGCCACC | -0.068
8 | ATGCAAAA | -0.166
9 | CATCACCG | 0.025
10 | CGGATCTC | 0.325
11 | CCTCGAAC | -0.076
12 | CTCTCGGA | 0.358
13 | GCACTTCA | 0.0895
14 | ATATTCTC | 0.0887
15 | CATATGAC | -0.103
16 | GAGTTACA | 0.0629
17 | CATTATGC | 0.0385
18 | CCCATATA | 0.128
19 | GGGACACA | 0.154
20 | AGTGAAAC | -0.0998
21 | CCCATCCG | 0.223
22 | ATTTCTTG | 0.0338
23 | GTAAGCCA | -0.14
24 | CATCATGC | -0.246
25 | AAGCGGAA | 0.387

Row | Sequence | PBM E-score
26 | GACGCAAC | -0.0543
27 | AAGTCCAT | -0.0399
28 | ACAAGGTC | -0.128
29 | ATCCATCC | 0.171
30 | ATTCACGG | 0.172
31 | GTTAAGAA | -0.0259
32 | AGCTAGTG | -0.198
33 | CCTCGTGA | -0.0949
34 | AATGGACA | -0.0389
35 | TGTTATAA | 0.0733
36 | GCGGAGAA | 0.29
37 | AACCCAAT | -0.179
38 | CAACCCAC | -0.0357
39 | CCCTGTAC | -0.17
40 | CAACTCCC | 0.218
41 | CGCTTCGC | -0.0359
42 | AAGTTCAC | 0.0197
43 | AGTTCACG | -0.0469
44 | CCTGGCGC | 0.126
45 | CCGACAAA | 0.138
46 | CCGAGAAG | 0.183
47 | CGCAAGTA | -0.0323
48 | AACCGAAC | 0.0918
49 | CCGCTCGA | 0.185
50 | CCTGTCTA | -0.148

Row | Sequence | PBM E-score
51 | CGGTGAGC | 0.0346
52 | ATAGTGTC | -0.0401
53 | CATAACTC | -0.165
54 | CAGGCAAC | -0.0972
55 | AGCCTACC | -0.135
56 | CGTGTCGA | -0.0243
57 | GCAATAAA | 0.0899
58 | AATATACG | -0.0829
59 | ACCGGACA | 0.206
60 | CGGCTAGA | 0.0367
61 | CAAAGCCC | -0.00105
62 | AGGAGTTG | -0.0286
63 | ACGTGGAC | 0.0398
64 | AAGCATAT | -0.138
65 | AACCTTCA | -0.429
66 | ATAAATTC | 0.0215
67 | AACAAGGT | -0.0672
68 | AAGTCTAC | -0.235
69 | CCGCACTC | 0.226
70 | CAGGCTAC | -0.195
71 | CGCATATC | 0.171
72 | CTGGTCAC | -0.178
73 | GCCCCAGA | 0.0958
74 | CCACACCC | 0.0858
75 | CATGATCG | -0.0559

Row | Sequence | PBM E-score
76 | TACTCCCA | -0.0591
77 | ACCACCCT | -0.173
78 | ATCGGCAC | 0.232
79 | CTATGGGC | 0.00103
80 | CCCCGCGC | 0.197
81 | GCCCGGGA | 0.393
82 | AACACTTC | 0.145
83 | CGTACCGC | 0.224
84 | ACACGGGA | 0.271
85 | AACCGACA | 0.0424
86 | CAATTTGG | -0.027
87 | GCTTGTCA | 0.132
88 | CTCCCACA | -0.0457
89 | CACGTATG | -0.0737
90 | CGGAATCA | 0.456
91 | GGCCTTCA | 0.0249
92 | AAATGGAG | 0.0842
93 | AGTTGCGG | 0.222
94 | ACGCCCTA | -0.103
95 | AGCCGTGA | 0.0664
96 | ACAGTTAA | -0.0121
97 | ATCCAGAC | 0.216
98 | GCACCAAA | -0.0138
99 | CTTAGTAC | -0.107
100 | AGAGGTGA | -0.145

Row | Sequence | PBM E-score
101 | AGTTAATC | -0.171
102 | AGTCAACG | -0.214
103 | ATGGAACG | 0.0401
104 | GAAAACAC | 0.112
105 | GTGTTCCA | 0.0333
106 | CCAAGTTC | 0.125
107 | CGGCCCTA | 0.0923
108 | GCACCAGC | -0.204
109 | GTAAACTA | -0.0316
110 | GCCGCTCA | 0.00683
111 | ACGGGAGG | 0.171
112 | CAACGAAA | 0.0219
113 | GTTAATCA | -0.0162
114 | ATTAGGAC | -0.269
115 | TCTTACAA | -0.178
116 | ATCGCATG | -0.139
117 | AAGATACT | -0.0106
118 | AATGTGGC | 0.0757
119 | ACCCTCAG | -0.123
120 | GCGAGCGA | 0.0818
121 | CGTATAAG | 0.0134
122 | ATCTGACG | -0.0524
123 | ACGACAGC | -0.103
124 | AATAGATT | 0.041
125 | CGATTAAG | -0.114

Row | Sequence | PBM E-score
126 | CACCCTAG | -0.011
127 | ATAATGTG | -0.0655
128 | CATTATCG | -0.0579
129 | ATCGGTCA | -0.0945
130 | GACGGTTA | -0.183
131 | GAATAATA | 0.0876
132 | ACAAGGAT | -0.0898
133 | CTACGTAC | -0.13
134 | ACGGAACC | 0.487
135 | CTGGTGAA | -0.171
136 | CGTCCCCA | -0.0149
137 | GGATTTGA | -0.0356
138 | CTCTGCAC | -0.0549
139 | AAAGCACT | 0.0582
140 | AATACGCC | 0.0735
141 | CCGCTATC | 0.211
142 | AAAGCGAC | -0.0306
143 | ATAAAAAG | 0.0401
144 | GGGAATAA | 0.199
145 | CCATCGCC | 0.00589
146 | CACGGTGC | -0.0844
147 | ACGGGGGA | 0.134
148 | ACGACCCG | 0.248
149 | CCTATACA | -0.206
150 | ACTTAATC | -0.12

Row | Sequence | PBM E-score
151 | ACGATTGC | 0.0997
152 | GTCACCTA | -0.389
153 | GTCAGTCA | -0.0728
154 | CTGTATAC | -0.0785
155 | GTACAGCA | -0.128
156 | ATACACAT | -0.162
157 | ACAGATAC | -0.00099
158 | AGGTTTTC | -0.0856
159 | AGCCTAGG | -0.112
160 | AATTCGGT | 0.141
161 | ACCTTAAA | -0.0358
162 | GGCATCAC | -0.109
163 | GGTATCAC | 0.0398
164 | ATGGTCAA | -0.123
165 | CGCAGACA | 0.117
166 | CATAGTGA | -0.186
167 | CATCCCAG | -0.106
168 | ATATTCCA | 0.128
169 | CATATACA | 0.0577
170 | CTAGGTAC | -0.0628
171 | ACCGAGCT | 0.124
172 | GGATGCCC | 0.0356
